From the RNAGym collection of RNA variant scans (doi:10.7554/elife.90254)
The source gives no read counts; variants with many changes may rest on few reads.

B1: LINE1-mini (parent)
chain: GGCAGAGCUCAACACAGCGUGGCAAAGUGGCUGUGGCUAGACUGCC

Variants of: B1
Assay: self-cleavage, relative activity (ratio to wild type); higher = more cleavage; in vitro, sequencing; the parent is a self-cleaving ribozyme

Row | Variant | self-cleavage
1 | G2A A14C G17U G19A | 0.24
2 | G2A A16G G29A | 0.82
3 | G2A A12C A14U A39U | 0.03
4 | G2A A12C G27A | 0.03
5 | G2A C18A G44A | 0.08
6 | G2A C3U C18A G19U G21U A41C | 0.1
7 | G2A A12U U38G C42A C46A | 0
8 | G2A A11U A25U C31A G36A U38A | 0.02
9 | G2A C3U C10A A16U A24U A25C A41C | 0.03
10 | G2A C15A C18A C23A | 0
11 | G2A C10U U32A | 0.04
12 | G2A A14C U28C | 0.06
13 | G2A C10U A11C G22A G27U U34A | 0.02
14 | G2A C13G G40A | 0.15
15 | G2A C15A G22C | 0.29
16 | G2A A6G G19U | 0.07
17 | G2A A12G C13G | 0.09
18 | G2A A16G G27C U38C | 0.07
19 | G2A C18G C31G C45A | 0.04
20 | G2A C13G G19C A26C G33U | 0.08
21 | G2A C15U U28G G44A | 0.29

Row | Variant | self-cleavage
22 | G2A A24U U34C | 0.17
23 | G2A C8U G19A C31U G40U U43G | 1.39
24 | G2A C15A G36A A39G | 0.21
25 | G2A C3U U9G A39U | 0.08
26 | G2A C3A A12C U20C | 0.07
27 | G2A C8G G27U | 0.02
28 | G2A C13G A25U | 0.17
29 | G2A C10A G36U U43C | 0.03
30 | G2A C8G U20G U34G | 0.08
31 | G2A C8A U9A A24C G40U | 0.4
32 | G2A A12G C13A G29C | 0.11
33 | G2A A12G A25U | 0.02
34 | G2A G5A G33A | 1.03
35 | G2A G5A C18G | 0.18
36 | G2A A6U C13U G19C | 0.08
37 | G2A A16C A26C | 0.13
38 | G2A A6G G17C G40C | 0.08
39 | G2A C31A C37A G44U C46G | 0.37
40 | G2A C18A G19U | 0.09
41 | G2A G5A G29A G33A | 0.19
42 | G2A C13A G19U G35U C46U | 0.31

Row | Variant | self-cleavage
43 | G2A A6G C10G U28C U38G | 0.01
44 | G2A A12G G29A C46A | 0.11
45 | G2A C3A C13A | 2.66
46 | G2A C10A G22U C31U | 0.04
47 | G2A C8G G21U C37G | 0.13
48 | G2A C23G A26U | 0.69
49 | G2A C15G U34A C45U | 0.01
50 | G2A A25C A39G | 0.12
51 | G2A A14C C31G G35U A39U C45A | 0.04
52 | G2A C10A A24U | 0.06
53 | G2A A16U U20C G35C G40U G44C | 0.11
54 | G2A A6G U38A | 0.05
55 | G2A C23A G27A G30U G35A U43A | 0.03
56 | G2A C3G A4C U20C A25G | 0.13
57 | G2A C15U C18A G30U | 0.11
58 | G2A C10A A14C C18U A25U G27C U43A | 0.01
59 | G2A C13U A14G A24C | 0.29
60 | G2A C10G A11U A41C | 0.09
61 | G2A C8G C31U | 0.02
62 | G2A C10U C13U G29U | 0.13
63 | G2A C3A A24U C37A C46U | 1.37

Row | Variant | self-cleavage
64 | G2A A14U C18A C23U A25U C46U | 0.05
65 | G2A C31U C37A | 0.22
66 | G2A C18U C37G | 0.92
67 | G2A C10A A12U A25C C31U C46A | 0.01
68 | G2A A16G G21C C31A | 0.12
69 | G2A G5A A11C | 0.11
70 | G2A A11G G22U | 0.04
71 | G2A C8G C23A G36A C37G | 0.14
72 | G2A A11C A41G G44U | 0.01
73 | G2A C3U A14G | 0.5
74 | G2A C3G A25U | 0.54
75 | G2A C10U C13A | 0.1
76 | G2A C15A G27A U28G | 0.2
77 | G2A A12U C13G G22A | 0.17
78 | G2A C13U G17C C18G G35U | 0.37
79 | G2A A26U G44C C45U | 0.14
80 | G2A A11U G35U | 0.01
81 | G2A C3A A6C C10G G17U C37G | 0.08
82 | G2A C10U A26G G27A G40U | 0.07
83 | G2A A14U G21U | 0.37
84 | G2A C10A G30U G36C | 0.03
